This is one part of the list. These are noisy estimates, calculated here from bound and input reads.

The target of the assay is T1, Pho4 (S. cerevisiae) (UniProt P07270).
T1 sequence: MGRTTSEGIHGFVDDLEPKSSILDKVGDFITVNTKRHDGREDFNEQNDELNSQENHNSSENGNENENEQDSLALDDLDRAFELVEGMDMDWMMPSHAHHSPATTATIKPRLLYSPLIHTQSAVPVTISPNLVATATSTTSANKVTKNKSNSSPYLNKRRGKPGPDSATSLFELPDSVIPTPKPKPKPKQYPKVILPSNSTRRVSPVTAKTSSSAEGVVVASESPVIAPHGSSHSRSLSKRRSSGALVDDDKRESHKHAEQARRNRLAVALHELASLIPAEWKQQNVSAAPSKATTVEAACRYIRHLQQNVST
In words: relative binding free energy (BET-seq); higher = weaker binding. The settings on record: reference: library average.
For AGATGCACGTGCTGGG, the “relative binding free energy” value is -0.14 kcal/mol.
With GTTCACACGTGTTTCG, the “relative binding free energy” value turned out to be 0.24 kcal/mol.
As for TGGGGCACGTGTAAGT, the “relative binding free energy” value was -0.03 kcal/mol.
As for TATGGCACGTGGATCG, the figure is -0.11 kcal/mol.
Under TTATCCACGTGAGGGG stands 0.19 kcal/mol; under GGGGCCACGTGGCGTG, -0.13 kcal/mol.
Take ATTATCACGTGAGAAT: the “relative binding free energy” value was 0.28 kcal/mol.
On to ATCGGCACGTGGGAGA, for which the “relative binding free energy” value is -0.13 kcal/mol.
Consider ATGAGCACGTGGTATG, for which the “relative binding free energy” value was -0.15 kcal/mol.
For the sequence TTACTCACGTGCGTGT, the “relative binding free energy” value was 0.13 kcal/mol.
With AGGAGCACGTGCGAGG, the “relative binding free energy” value was -0.22 kcal/mol.
With TGTTACACGTGCATAG, the “relative binding free energy” value was found to be 0.13 kcal/mol.
With AGGTCCACGTGATTTA, the “relative binding free energy” value amounted to 0.22 kcal/mol.
For AGTAACACGTGGGGGA, the “relative binding free energy” value was -0.12 kcal/mol.
On to CTGGACACGTGTGGGA, for which the “relative binding free energy” value worked out at 0.13 kcal/mol.
As to GGTGTCACGTGGACTG, the “relative binding free energy” value came out at 0.04 kcal/mol.
Under GTTGGCACGTGGCCTA stands -0.12 kcal/mol; under GGCTACACGTGGGATG, 0.15 kcal/mol.
For the sequence GGTCTCACGTGGGGAG, the “relative binding free energy” value is 0.1 kcal/mol.
Turning to GTGAACACGTGGACGG, the “relative binding free energy” value was found to be 0.06 kcal/mol.
As for AGCTTCACGTGTATTA, the “relative binding free energy” value was 0.18 kcal/mol.
Under GTTGACACGTGAAGTG stands 0.17 kcal/mol.
As for TAACACACGTGTGGTG, the figure is 0.05 kcal/mol; as for TGTGGCACGTGGTGCC, -0.19 kcal/mol.
Turning to GTAAGCACGTGTCTTA, the “relative binding free energy” value is 0.04 kcal/mol.
Turning to GCAGTCACGTGTGGAG, the “relative binding free energy” value was 0.13 kcal/mol.
Turning to ATCGACACGTGATTGT, the “relative binding free energy” value is 0.29 kcal/mol.
On to TTGAACACGTGTTTCA, for which the “relative binding free energy” value was 0.1 kcal/mol.
Under AGGCGCACGTGTGGGT stands -0.14 kcal/mol; under TCTAGCACGTGGAAGG, 0.08 kcal/mol; under TTGTTCACGTGGTAAG, 0.26 kcal/mol.
As for TATATCACGTGTTGTC, the figure is 0.12 kcal/mol; as for AAGGCCACGTGATTGT, -0.08 kcal/mol; as for TAGATCACGTGATGGT, 0.32 kcal/mol.
On to TGCATCACGTGTTGTG, for which the “relative binding free energy” value is -0.04 kcal/mol.
On to AGTGGCACGTGTACGC, for which the “relative binding free energy” value amounted to 0.04 kcal/mol.
As for TTGTTCACGTGTGATC, the figure is 0.37 kcal/mol; as for TTTAACACGTGCGTGC, 0.01 kcal/mol.
For the sequence ATCTACACGTGGGTTT, the “relative binding free energy” value was 0.03 kcal/mol.
Take AGTGACACGTGAATCG: the “relative binding free energy” value worked out at 0.35 kcal/mol.
In the case of CGGGCCACGTGGTTTG, the “relative binding free energy” value was -0.22 kcal/mol.
As for TTTTGCACGTGGTCTG, the figure is -0.01 kcal/mol.
Consider TTGTGCACGTGGGTGT, for which the “relative binding free energy” value is -0.12 kcal/mol.
As for CATGGCACGTGCGTGT, the “relative binding free energy” value is -0.28 kcal/mol.
GTACGCACGTGTTGGT: the “relative binding free energy” value was -0.05 kcal/mol.
For the sequence CGAGGCACGTGGTGTA, the “relative binding free energy” value is -0.16 kcal/mol.
In the case of GGAATCACGTGGCTGG, the “relative binding free energy” value was found to be 0.22 kcal/mol.
Take TGAGACACGTGTGTGA: the “relative binding free energy” value is -0.06 kcal/mol.
Turning to TGGGTCACGTGATGAG, the “relative binding free energy” value came to 0.25 kcal/mol.
Regarding TGATGCACGTGATTGG, the “relative binding free energy” value was 0.09 kcal/mol.
For the sequence CTTAGCACGTGTTTTG, the “relative binding free energy” value is -0.14 kcal/mol.
Under GGCTACACGTGGTTGT stands 0.2 kcal/mol; under ATGGTCACGTGGTTGA, 0.11 kcal/mol.
For TGAGGCACGTGGTCCG, the “relative binding free energy” value is -0.22 kcal/mol.
For the sequence GGTTGCACGTGATTAA, the “relative binding free energy” value turned out to be 0.01 kcal/mol.
Under AGTGTCACGTGGACGG stands 0.16 kcal/mol.
Take TTCAGCACGTGGTGTT: the “relative binding free energy” value was -0.13 kcal/mol.
On to TTCAGCACGTGGTGGG, for which the “relative binding free energy” value is -0.14 kcal/mol.
ATGATCACGTGTTAGG: the “relative binding free energy” value was 0.1 kcal/mol.
Consider TTAGTCACGTGGCATT, for which the “relative binding free energy” value is 0.05 kcal/mol.
In the case of ATTCGCACGTGCGGGG, the “relative binding free energy” value is -0.11 kcal/mol.
For TATAGCACGTGTAAGT, the “relative binding free energy” value was -0.03 kcal/mol.
For the sequence GTATCCACGTGTTAGG, the “relative binding free energy” value came out at 0.17 kcal/mol.
Regarding GTGTTCACGTGTAGTT, the “relative binding free energy” value came to 0.22 kcal/mol.
For the sequence AGTCGCACGTGGGAGG, the “relative binding free energy” value is -0.19 kcal/mol.
With AAGGACACGTGGATAG, the “relative binding free energy” value amounted to 0.08 kcal/mol.
Under TCGGACACGTGAGGGC stands 0.3 kcal/mol; under ATGGACACGTGGTGAC, 0.04 kcal/mol.
Turning to CGTAGCACGTGTGTAG, the “relative binding free energy” value was -0.06 kcal/mol.
For TTGTTCACGTGCTTGT, the “relative binding free energy” value was 0.18 kcal/mol.
Turning to TTGGTCACGTGCGGAT, the “relative binding free energy” value came to 0.15 kcal/mol.
For the sequence GTACTCACGTGGTTAG, the “relative binding free energy” value came to 0.34 kcal/mol.
Take GTAGCCACGTGAGGTA: the “relative binding free energy” value came out at 0.26 kcal/mol.

For the origin of these results see the BET-seq Pho4 binding data (Le et al. 2018).
